Data taken from patent publication US20250340604A1, “BLOOD-BRAIN BARRIER TRANSLOCATING PEPTIDES AND RELATED MOLECULES AND METHODS OF USE THEREOF” (Enkefalos Biosciences, Inc., priority 2022, published 2025).

B1: GlcCSase-CYC17 fusion cyclotide: CYC17 (SEQ ID NO:72) linked to C-terminal end of glucocerebrosidase (SEQ ID NO:144) via Gly-Ser linker; SEQ ID NO:146 (protein)
chain: ARPCIPKSFGYSSVVCVCNATYCDSFDPPTFPALGTFSRYESTRSGRRMELSMGPIQANHTGTGLLLTLQPEQKFQKVKGFGGAMTDAAALNILALSPPAQNLLLKSYFSEEGIGYNIIRVPMASCDFSIRTYTYADTPDDFQLHNFSLPEEDTKLKIPLIHRALQLAQRPVSLLASPWTSPTWLKTNGAVNGKGSLKGQPGDIYHQTWARYFVKFLDAYAEHKLQFWAVTAENEPSAGLLSGYPFQCLGFTPEHQRDFIARDLGPTLANSTHHNVRLLMLDDQRLLLPHWAKVVLTDPEAAKYVHGIAVHWYLDFLAPAKATLGETHRLFPNTMLFASEACVGSKFWEQSVRLGSWDRGMQYSHSIITNLLYHVVGWTDWNLALNPEGGPNWVRNFVDSPIIVDITKDTFYKQPMFYHLGHFSKFIPEGSQRVGLVASQKNDLDAVALMHPDGSAVVVVLNRSSKDVPLTIKDPAVGFLETISPGYSIHTYLWHRQGSGGGSGGGGSGGGGSLE[about 40 residues left out here]
modifications: Glucocerebrosidase-CYC17 with linker
B2: NGF-cyclotide fusion: CYC17 fused to C-terminal end of human Pro-NGF (SEQ ID NO:147) via flexible linker, V5 and 6-His tags; SEQ ID NO:149 (protein)
chain: PHSESNVPAGHTIPQVHWTKLQHSLDTALRRARSAPAAAIAARVAGQTRNITVDPRLFKKRRLRSPRVLFSTQPPREAADTQDLDFEVGGAAPFNRTHRSKRSSSHPIFHRGEFSVCDSVSVWVGDKTTATDIKGKEVMVLGEVNINNSVFKQYFFETKCRDSNPVDSGCRGIDSKHWNSYCTTTHTFVKALTMDGKQAAWEFIRIDTACVCVLSRKAVRGGGGSGNS[about 40 residues left out here]
modifications: NGF-CYC17 cyclotide fusion

Assays:
[1] = Glucocerebroside activity assay (SensoLyte Red Glucocerebrosidase Fluorometric Assay Kit); format: biochemical; settings: 10 μL concentrated HEK293F supernatant, room temperature, 1 hour kinetic; versus negative controls; FIG. 6A
Method: A standard glucocerebroside activity assay based on the ability of the GlcCSase-CYC17 fusion cyclotide to react with substrate was performed to assess the functional integrity/activity of the fusion cyclotide. Specifically, the enzymatic activity was assayed using the SensoLyte Red Glucocerebrosidase Fluorometric Assay Kit (AnaSpec) according to the manufacturer's protocol. The assay uses a resorufin-β-glucoside substrate that, upon cleavage of the glycosidic linkage by hGCSase, releases resorufin, which fluoresces at 610 nm upon excitation at 570 nm. The kinetic assay was conducted in triplicate in an opaque 96-well plate at room temperature in a SpectraMax fluorescence plate reader over the course of 1 hour using 10 μL of filtered, concentrated supernatant from the HEK293F hGCSase-CYC17 expression culture, 40 μL of assay buffer, and 50 μL of substrate solution. Positive (GCSase enzyme), inhibitor, vehicle only, and substrate only controls were assayed parallelly in triplicate.

[2] = biological target: T1, human transferrin receptor (hTfR) (Homo sapiens, UniProt P02786); test: ELISA binding of GlcCSase-CYC17 fusion to transferrin receptor; settings: 125 ng hTfR coated per well, concentrated expression supernatant; FIG. 6B
T1 construct: expressed in transfected cells; host or cells: HEK293F
T1 sequence (P02786 whole entry, the tested form may be a part): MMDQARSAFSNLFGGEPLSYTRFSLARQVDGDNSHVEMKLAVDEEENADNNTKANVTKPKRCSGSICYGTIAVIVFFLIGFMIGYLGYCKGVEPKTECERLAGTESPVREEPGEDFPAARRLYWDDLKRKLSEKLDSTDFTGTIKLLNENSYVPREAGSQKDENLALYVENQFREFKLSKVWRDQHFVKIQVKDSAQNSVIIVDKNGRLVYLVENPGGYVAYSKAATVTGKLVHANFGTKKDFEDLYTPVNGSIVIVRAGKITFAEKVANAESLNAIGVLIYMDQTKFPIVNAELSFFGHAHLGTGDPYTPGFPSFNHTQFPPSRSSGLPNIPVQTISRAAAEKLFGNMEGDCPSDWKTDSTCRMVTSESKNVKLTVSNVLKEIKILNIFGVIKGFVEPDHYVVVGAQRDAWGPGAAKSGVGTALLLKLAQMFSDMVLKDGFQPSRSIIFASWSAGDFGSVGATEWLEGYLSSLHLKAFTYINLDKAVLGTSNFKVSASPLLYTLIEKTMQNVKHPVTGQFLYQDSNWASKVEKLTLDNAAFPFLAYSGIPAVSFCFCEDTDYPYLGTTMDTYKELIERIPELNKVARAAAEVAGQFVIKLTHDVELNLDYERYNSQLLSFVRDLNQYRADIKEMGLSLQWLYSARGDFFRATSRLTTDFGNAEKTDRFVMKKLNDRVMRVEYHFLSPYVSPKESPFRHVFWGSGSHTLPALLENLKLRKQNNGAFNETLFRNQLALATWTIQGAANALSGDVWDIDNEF
Method: Binding of the GlcCSase-CYC17 fusion cyclotide was assessed by Enzyme-linked immunosorbent assay (ELISA) of hGCSase-HT2 using human transferrin receptor (hTfR) antigen. Duplicate wells of a high binding half area 96-well plate (Corning) were directly coated with 125 ng of hTfR in 50 μL Tris buffered saline plus 0.1% (v/v) Tween 20 (TBST) containing 2% milk powder (or TBST containing 2% milk powder alone as a negative control) at 4° C. overnight. After removal of the supernatants, the wells are blocked with 50 μL of TBST containing 2% milk powder at room temperature for 2 hours. The blocking agent was removed, and 25 μL of filtered, concentrated supernatant from the HEK293F hGCSase-CYC17 fusion expression culture (or 25 μL of filtered, concentrated supernatant from a non-hGCSase expressing HEK293F expression culture as a negative control) plus 25 μL of TBST containing 4% milk powder were added to the appropriate wells and incubated at room temperature for 1 hour. The supernatants were removed, and wells were washed 4 times with TBST. […] 50 μL of tetramethylbenzidine (TMB) substrate was added to each well and incubated at room temperature for 5 minutes, then quenched with 50 μL of 1 N sulfuric acid, and absorbance was read at 450 nm using a SpectraMax absorbance plate reader.

[3] = biological target: T2, His-tagged human Transferrin receptor (TrFR) (Homo sapiens, UniProt P02786); test: ELISA binding of NGF-cyclotide fusion to transferrin receptor; settings: receptor coated at 0.5, 1 or 2 μg/mL, anti-V5-HRP detection; FIG. 7
T2 construct: His tag
T2 sequence (P02786 whole entry, the tested form may be a part): as above
Method: Purified NGF-cyclotide fusion was contacted with His-tagged human transferrin receptor (TrFR) coated at various concentrations (0.5 μg/mL, 1 μg/mL, or 2 μg/mL) on a microwell plate. Binding of the NGF-cyclotide fusion to the coated human transferrin receptor was assessed by ELISA by anti-V5-HRP detection of the NGF-CYC17 fusion protein.

Row | Molecule | enzymatic activity (emitted fluorescence) [1] | binding to hTfR [2] | binding to hTrFR [3]
1 | B1 | time dependent increase of emitted fluoresce | bound | –
2 | B2 | – | – | bound
